Reference: PubChem BioAssay AID651820 (National Center for Advancing Translational Sciences (NCATS), 2012)
About 12,000 (3.5%) of roughly 340,000 compounds were called active. Inconclusive results, whose numbers are uncertain, are shown with a selection of clear calls. Calls come from the whole dose curve; as a rule, active = well fitted inhibition curve with a large enough effect; inconclusive = small, poorly fitted or top-dose-only effect, or another doubt; inactive = no such curve, though single readings can be large or run the other way. No potency is given beside an inconclusive call; the fits are too rough.

Assay: qHTS Assay for Inhibitors of Hepatitis C Virus (HCV)
Details: Huh7.5.1 HCVcc-Cre (HCVcc is cell-culture hepatitis C virus) infection, luciferase reporter, 44 h; activity change, negative = inhibition: at 41.8 µM (top of the series)
Procedure, shortened: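 A cell-based infection assay in which seeded cells (1,000 per well) receive test compound after 4 h, are inoculated with HCVcc-Cre at approximately 0.5 moi, and are incubated 44 h before luminescence detection.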
% is set by controls: 0 for no effect and ±100 for the full control effect; potency is the fitted concentration of half-maximal effect; tags give direction and shape of the fitted curve.

SMILES | Potency | activity change, negative = inhibition
CCOc1ccc(S(=O)(=O)NCCC(=O)NCCOc2ccccc2OC)cc1 | inconclusive [inhibitor, single point] | –
Cc1ccc(NC(=O)CC2SCCNC2=O)cc1Cl (configuration not stated) | – | inactive: 7.84%
COc1ccccc1N1CCN(C(c2cccs2)C(C)NS(=O)(=O)c2ccccc2)CC1 (configuration not stated) | inconclusive [inhibitor, single point] | –
OCCC1CN(Cc2nc(-c3ccccc3)cs2)CCN1C1CCCC1 (configuration not stated) | – | inactive: -26.6%
COc1ccc(C(C)=O)cc1COC(=O)CCCN1C(=O)c2ccccc2C1=O | – | inactive: 8.51%
CNC(=S)N/N=C(\C)c1ccc2c(c1)OCO2 | – | inactive: -14.5%
c1ccc(N2CCN(c3c4c(nc5ncnn35)CCC4)CC2)cc1 | inconclusive [inhibitor, single point] | –
Cn1c(C(=O)OC(C(=O)NC2CCCC2)c2ccncc2)cc2sccc21 (configuration not stated) | inconclusive [inhibitor, single point] | –
CCC(C)NS(=O)(=O)c1ccc(OCC(=O)Nc2ccc3c(c2)OCCO3)cc1 (configuration not stated) | inconclusive [inhibitor, single point] | –
CCNc1ccc(Br)cc(C(=O)/C=C/c2ccc(Cl)cc2Cl)c1=O | active: 8.91 µM | –
Cc1c(C(=O)N(Cc2ccccc2)Cc2cccs2)cnn1-c1ccc(Cl)cc1 | – | inconclusive: -32.1% [inhibitor]
CCOC(=O)N1CCN(C(=S)Nc2cc(OC)c(OC)cc2C(=O)OC)CC1 | inconclusive [inhibitor, full curve, poor fit] | –
O=C(CCC(=O)Nc1ccccc1)N/N=C/c1ccco1 | – | inactive: 3.98%
COC(=O)[C@]1(Cc2ccccc2)N[C@H](CN(C)S(=O)(=O)c2ccc(OC(F)(F)F)cc2)[C@@H]2C(=O)N(C)C(=O)[C@@H]21 | inconclusive [inhibitor, single point] | –
COc1ccc(C(=O)OCC(=O)NC2CCCCCC2)cc1OC | inconclusive [inhibitor, single point] | –
COc1ccc(CNC(=O)C(=O)c2cn(CC(=O)N3CCOCC3)c3ccccc23)cc1 | – | inactive: -2.58%
COc1ccccc1-n1c(-c2ccco2)n[nH]c1=S | – | inactive: 7.96%
COC(=O)C1=C(C(=O)OC)C2c3ccccc3C1c1ccccc12 | – | inactive: 15.7%
C/C(=N\NC(=O)Cc1ccccc1)c1ccc(Br)s1 | – | inactive: -4.58%
O=C(Nc1cccc(NC(=O)c2ccc(F)cc2)c1)c1ccc(F)cc1 | – | inactive: -17.4%
O=C(Nc1ccc(C(=O)NCCCN2CCN(c3ccccc3)CC2)cc1)C1=CSCCO1 | – | inactive: -28%
COc1ccc2nc(C3CCCCC3)c3c(c2c1)CCC3 | inconclusive [inhibitor, partial curve] | –
COc1ccc(CCNC(=O)CCCCCN2C(=O)[C@@H]3Cc4ccccc4CN3C2=O)cc1OC | inconclusive [inhibitor, single point] | –
CCc1ccc(NC(=O)CSc2nc3c(c(=O)n(C)c(=O)n3C)n2C)cc1 | – | inactive: -6.49% [at 8.37 µM]

SMILES | Potency | activity change, negative = inhibition
COc1ccc(S(=O)(=O)NC(C)C(=O)NCc2cccnc2)cc1Cl (configuration not stated) | – | inactive: 7.64%
CC(C)c1ccccc1NC(=S)NC1CCN(Cc2ccccc2)CC1 | inconclusive [inhibitor, single point] | –
CSc1nnc(CCNC(=O)OC(C)(C)C)o1 | – | inactive: -2.19%
CCN(CC)c1ccc(C(=C2C=CC(=[N+](CC)CC)C=C2)c2ccccc2)cc1 | inconclusive [inhibitor, full curve, poor fit] | –
CN(C)S(=O)(=O)c1cccc(NC(=O)c2c[nH]c3ccccc23)c1 | inconclusive [inhibitor, partial curve] | –
Nn1c(-c2cccs2)nc2sc3c(c2c1=O)CCCC3 | inconclusive [inhibitor, single point] | –
COc1ccc(/C=C2\CCC(C3CCCC3)C2=O)cc1OC (configuration not stated) | – | inactive: -24.3%
O=C(Nc1ccccc1)c1ccc(=O)n(Cc2cccc(Cl)c2)c1 | inconclusive [inhibitor, single point] | –
Cc1ccccc1NC(=O)CSC1=C(C#N)C(c2ccsc2)CC(=O)N1 (configuration not stated) | inconclusive [inhibitor, partial curve] | –
Cc1cccc(NC(=O)c2cc(NC(=O)c3ccco3)ccc2Cl)n1 | inconclusive [inhibitor, partial curve, poor fit] | –
COc1cc(Br)c(C(C)NC(=O)c2ccccc2)cc1OC (configuration not stated) | – | inactive: 14.2%
O=C(C1CCCN(S(=O)(=O)Cc2ccccc2)C1)N1CCC(Cc2ccccc2)CC1 (configuration not stated) | inconclusive [inhibitor, partial curve, poor fit] | –
CC1CCCN(C(=O)COC(=O)c2ccc(=O)n(Cc3ccccc3)n2)C1 (configuration not stated) | – | inactive: -0.355%
CCOC(=O)c1c(NC(=O)CCN2CCOCC2)sc(C)c1-c1ccccc1 | active: 25.1 µM | –
COc1ccccc1CCNC(=O)Cc1cccs1 | inconclusive [inhibitor, single point] | –
C/C(=N\NC(=O)c1ccn(C)n1)c1cccc(NC(=O)c2ccc(C)s2)c1 | inconclusive [inhibitor, full curve, poor fit] | –
CCN(CC)CCNC(=S)Nc1ccc2nc(N3CCN(C)CC3)cc(C)c2c1 | inconclusive [inhibitor, single point] | –
COc1cc(C(=O)N/N=C/c2cn(Cc3cccc(F)c3)c3ccccc23)ccc1O | inconclusive [inhibitor, full curve, poor fit] | –
Cc1ccc(C)c(-n2nnnc2SCC(=O)NCCC2=CCCCC2)c1 | inconclusive [inhibitor, single point] | –
CN1C(=O)/C(=C/c2ccc(C(F)(F)F)cc2)Sc2ccc(C(=O)N3CCN(c4ccccn4)CC3)cc21 | active: 14.1 µM | –
O=S(=O)(Cc1cc(Cl)nc(-c2ccncc2)n1)c1ccccc1 | inconclusive [inhibitor, single point] | –
NC(=O)c1ccsc1NC(=O)CS(=O)(=O)c1ccccc1 | – | inactive: 11.9%
O=C(NCc1ccc2c(c1)OCO2)C1CCN(c2nccc(C(F)(F)F)n2)CC1 | – | inactive: 2.27%
